Reference: the supplement of paper PMC8728848
The other results are listed elsewhere or left out.

How the values were obtained:
Test in all cases: glycan array binding signal (z-score within array); higher = stronger binding
Conditions in all cases: glycan notation: IUPAC condensed, linker removed
[1] = molecular target: Fuc(a1-2)Gal(b1-4)GlcNAc(b1-3)Gal(b1-4)GlcNAc(b1-2)Man(a1-3)[Fuc(a1-2)Gal(b1-4)GlcNAc(b1-3)Gal(b1-4)GlcNAc(b1-2)Man(a1-6)]Man(b1-4)GlcNAc(b1-4)GlcNAc
Summary of the method: (§1)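 Columns mapping to the same glycan were averaged after glycan names were converted to IUPAC-condensed notation. The data come from 3228 arrays in the Consortium for Functional Glycomics database, limited to those with an available protein sequence. Binding is reported as a within-array Z-score averaged across arrays of one protein sequence and across linkers.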

[2] = molecular target: Fuc(a1-2)Gal(b1-4)GlcNAc(b1-3)Gal(b1-4)GlcNAc(b1-3)Gal(b1-4)GlcNAc
Summary of the method: as §1

[3] = molecular target: Fuc(a1-2)Gal(b1-4)GlcNAc(b1-3)GalNAc
Summary of the method: as §1

[4] = molecular target: Fuc(a1-2)Gal(b1-4)GlcNAc(b1-3)[Fuc(a1-2)Gal(b1-4)GlcNAc(b1-6)]GalNAc
Summary of the method: as §1

[5] = molecular target: Fuc(a1-2)Gal(b1-4)GlcNAc(b1-3)[Fuc(a1-3)[Gal(b1-4)]GlcNAc(b1-6)]Gal(b1-4)Glc
Summary of the method: as §1

[6] = molecular target: Fuc(a1-2)Gal(b1-4)GlcNAc(b1-6)GalNAc
Summary of the method: as §1

[7] = molecular target: Fuc(a1-2)Gal(b1-4)GlcNAc6S
Summary of the method: as §1

[8] = molecular target: Fuc(a1-2)Gal(b1-4)[Fuc(a1-3)]GlcNAc
Summary of the method: as §1

[9] = molecular target: Fuc(a1-2)Gal(b1-4)[Fuc(a1-3)]GlcNAc(b1-2)Man(a1-3)[Fuc(a1-2)Gal(b1-4)[Fuc(a1-3)]GlcNAc(b1-2)Man(a1-6)]Man(b1-4)GlcNAc(b1-4)[Fuc(a1-6)]GlcNAc
Summary of the method: as §1

[10] = molecular target: Fuc(a1-2)Gal(b1-4)[Fuc(a1-3)]GlcNAc(b1-2)[Fuc(a1-2)Gal(b1-4)[Fuc(a1-3)]GlcNAc(b1-4)]Man(a1-3)[Fuc(a1-2)Gal(b1-4)[Fuc(a1-3)]GlcNAc(b1-2)Man(a1-6)]Man(b1-4)GlcNAc(b1-4)GlcNAc
Summary of the method: as §1

[11] = molecular target: Fuc(a1-2)Gal(b1-4)[Fuc(a1-3)]GlcNAc(b1-3)Gal(b1-4)[Fuc(a1-3)]GlcNAc
Summary of the method: as §1

[12] = molecular target: Fuc(a1-2)Gal(b1-4)[Fuc(a1-3)]GlcNAc(b1-3)Gal(b1-4)[Fuc(a1-3)]GlcNAc(b1-3)Gal(b1-4)[Fuc(a1-3)]GlcNAc
Summary of the method: as §1

[13] = molecular target: Fuc(a1-2)Gal(b1-4)[Fuc(a1-3)]GlcNAc(b1-3)GalNAc
Summary of the method: as §1

[14] = molecular target: Fuc(a1-2)Gal(b1-4)[Fuc(a1-3)]GlcNAc(b1-3)[Neu5Ac(a2-6)Gal(b1-4)GlcNAc(b1-6)]Gal(b1-4)Glc
Summary of the method: as §1

[15] = molecular target: Fuc(a1-2)Gal3S(b1-4)GlcNAc
Summary of the method: as §1

[16] = molecular target: Fuc(a1-2)Gal6S(b1-3)GlcNAc
Summary of the method: as §1

[17] = molecular target: Fuc(a1-2)Gal6S(b1-3)GlcNAc6S
Summary of the method: as §1

Fuc(a1-2)Gal6S(b1-4)Glc = molecular target: Fuc(a1-2)Gal6S(b1-4)Glc
Summary of the method: as §1

[18] = molecular target: Fuc(a1-2)Gal6S(b1-4)Glc6S
Summary of the method: as §1

Fuc(a1-2)[Gal(a1-3)]Gal = molecular target: Fuc(a1-2)[Gal(a1-3)]Gal
Summary of the method: as §1

[19] = molecular target: Fuc(a1-2)[Gal(a1-3)]Gal(b1-3)GalNAc
Summary of the method: as §1

[20] = molecular target: Fuc(a1-2)[Gal(a1-3)]Gal(b1-3)GalNAc(b1-3)Gal(a1-4)Gal(b1-4)Glc
Summary of the method: as §1

[21] = molecular target: Fuc(a1-2)[Gal(a1-3)]Gal(b1-3)GlcNAc
Summary of the method: as §1

[22] = molecular target: Fuc(a1-2)[Gal(a1-3)]Gal(b1-3)GlcNAc(b1-2)Man(a1-3)[Fuc(a1-2)[Gal(a1-3)]Gal(b1-3)GlcNAc(b1-2)Man(a1-6)]Man(b1-4)GlcNAc(b1-4)GlcNAc
Summary of the method: as §1

[23] = molecular target: Fuc(a1-2)[Gal(a1-3)]Gal(b1-3)GlcNAc(b1-2)Man(a1-3)[Fuc(a1-2)[Gal(a1-3)]Gal(b1-3)GlcNAc(b1-2)Man(a1-6)]Man(b1-4)GlcNAc(b1-4)[Fuc(a1-6)]GlcNAc
Summary of the method: as §1

[24] = molecular target: Fuc(a1-2)[Gal(a1-3)]Gal(b1-3)GlcNAc(b1-3)GalNAc
Summary of the method: as §1

[25] = molecular target: Fuc(a1-2)[Gal(a1-3)]Gal(b1-3)GlcNAc(b1-6)GalNAc
Summary of the method: as §1

[26] = molecular target: Fuc(a1-2)[Gal(a1-3)]Gal(b1-4)Glc
Summary of the method: as §1

[27] = molecular target: Fuc(a1-2)[Gal(a1-3)]Gal(b1-4)GlcNAc
Summary of the method: as §1

[28] = molecular target: Fuc(a1-2)[Gal(a1-3)]Gal(b1-4)GlcNAc(b1-2)Man
Summary of the method: as §1

[29] = molecular target: Fuc(a1-2)[Gal(a1-3)]Gal(b1-4)GlcNAc(b1-2)Man(a1-3)[Fuc(a1-2)[Gal(a1-3)]Gal(b1-4)GlcNAc(b1-2)Man(a1-6)]Man(b1-4)GlcNAc(b1-4)GlcNAc
Summary of the method: as §1

[30] = molecular target: Fuc(a1-2)[Gal(a1-3)]Gal(b1-4)GlcNAc(b1-2)Man(a1-3)[Fuc(a1-2)[Gal(a1-3)]Gal(b1-4)GlcNAc(b1-2)Man(a1-6)]Man(b1-4)GlcNAc(b1-4)[Fuc(a1-6)]GlcNAc
Summary of the method: as §1

[31] = molecular target: Fuc(a1-2)[Gal(a1-3)]Gal(b1-4)GlcNAc(b1-3)GalNAc
Summary of the method: as §1

[32] = molecular target: Fuc(a1-2)[Gal(a1-3)]Gal(b1-4)GlcNAc(b1-6)GalNAc
Summary of the method: as §1

[33] = molecular target: Fuc(a1-2)[Gal(a1-3)]Gal(b1-4)[Fuc(a1-3)]Glc
Summary of the method: as §1

[34] = molecular target: Fuc(a1-2)[Gal(a1-3)]Gal(b1-4)[Fuc(a1-3)]GlcNAc
Summary of the method: as §1

[35] = molecular target: Fuc(a1-2)[Gal(a1-3)]Gal(b1-4)[Fuc(a1-3)]GlcNAc(b1-3)GalNAc
Summary of the method: as §1

[36] = molecular target: Fuc(a1-2)[Gal(a1-4)]Gal(b1-4)GlcNAc
Summary of the method: as §1

[37] = molecular target: Fuc(a1-2)[GalNAc(a1-3)]Gal
Summary of the method: as §1

[38] = molecular target: Fuc(a1-2)[GalNAc(a1-3)]Gal(b1-3)GalNAc(a1-3)[Fuc(a1-2)]Gal(b1-4)GlcNAc
Summary of the method: as §1

[39] = molecular target: Fuc(a1-2)[GalNAc(a1-3)]Gal(b1-3)GalNAc(b1-3)Gal(a1-4)Gal(b1-4)Glc
Summary of the method: as §1

[40] = molecular target: Fuc(a1-2)[GalNAc(a1-3)]Gal(b1-3)GlcNAc
Summary of the method: as §1

[41] = molecular target: Fuc(a1-2)[GalNAc(a1-3)]Gal(b1-3)GlcNAc(b1-2)Man(a1-3)[Fuc(a1-2)[GalNAc(a1-3)]Gal(b1-3)GlcNAc(b1-2)Man(a1-6)]Man(b1-4)GlcNAc(b1-4)GlcNAc
Summary of the method: as §1

[42] = molecular target: Fuc(a1-2)[GalNAc(a1-3)]Gal(b1-3)GlcNAc(b1-2)Man(a1-3)[Fuc(a1-2)[GalNAc(a1-3)]Gal(b1-3)GlcNAc(b1-2)Man(a1-6)]Man(b1-4)GlcNAc(b1-4)[Fuc(a1-6)]GlcNAc
Summary of the method: as §1

[43] = molecular target: Fuc(a1-2)[GalNAc(a1-3)]Gal(b1-3)GlcNAc(b1-3)GalNAc
Summary of the method: as §1

B1: CBM13 2a (Mycobacterium tuberculosum), P64849 (protein)
chain: DGPVQLKSRLGDVCLDAPSGSWFSPLVINPCNGTDFQRWNLTDDRQVESVAFPGECVNIGNALWARLQPCVNWISQHWTVQPDGLVKSDLDACLTVLGGPDPGTWVSTRWCDPNAPDQQWDSVPLEHHHHHH
How did the “glycan array binding signal (z-score)” value [1] turn out when B1 was run?
Its value is -0.177.

What about the “glycan array binding signal (z-score)” value [2] of the same binder?
Its value is -0.322.

What about the “glycan array binding signal (z-score)” value [3] of the same binder?
The value was -0.25.

And the “glycan array binding signal (z-score)” value [4]?
The value was -0.061.

What about the “glycan array binding signal (z-score)” value [5] of the same binder?
The value was -0.206.

And the “glycan array binding signal (z-score)” value [6]?
Its value is -0.181.

What about the “glycan array binding signal (z-score)” value [7] of the same binder?
Its value is -0.257.

And the “glycan array binding signal (z-score)” value [8]?
Its value is -0.253.

And the “glycan array binding signal (z-score)” value [9]?
The value was 0.006.

What about the “glycan array binding signal (z-score)” value [10] of the same binder?
The value was -0.215.

And the “glycan array binding signal (z-score)” value [11]?
The value was -0.108.

What about the “glycan array binding signal (z-score)” value [12] of the same binder?
The value was -0.112.

And the “glycan array binding signal (z-score)” value [13]?
The value was 0.032.

What about the “glycan array binding signal (z-score)” value [14] of the same binder?
The value was -0.018.

And the “glycan array binding signal (z-score)” value [15]?
The value was -0.228.

What about the “glycan array binding signal (z-score)” value [16] of the same binder?
The value was -0.322.

What about the “glycan array binding signal (z-score)” value [17] of the same binder?
The value was 1.06.

What about the “glycan array binding signal (z-score)” value (Fuc(a1-2)Gal6S(b1-4)Glc) of the same binder?
Its value is -0.248.

What about the “glycan array binding signal (z-score)” value [18] of the same binder?
Its value is -0.174.

What about the “glycan array binding signal (z-score)” value (Fuc(a1-2)[Gal(a1-3)]Gal) of the same binder?
Its value is -0.26.

And the “glycan array binding signal (z-score)” value [19]?
Its value is -0.268.

And the “glycan array binding signal (z-score)” value [20]?
Its value is -0.311.

And the “glycan array binding signal (z-score)” value [21]?
Its value is 0.37.

And the “glycan array binding signal (z-score)” value [22]?
The value was -0.307.

What about the “glycan array binding signal (z-score)” value [23] of the same binder?
The value was -0.196.

And the “glycan array binding signal (z-score)” value [24]?
The value was -0.142.

What about the “glycan array binding signal (z-score)” value [25] of the same binder?
The value was -0.198.

And the “glycan array binding signal (z-score)” value [26]?
The value was -0.34.

What about the “glycan array binding signal (z-score)” value [27] of the same binder?
The value was -0.021.

And the “glycan array binding signal (z-score)” value [28]?
The value was -0.294.

And the “glycan array binding signal (z-score)” value [29]?
Its value is -0.34.

What about the “glycan array binding signal (z-score)” value [30] of the same binder?
The value was -0.171.

What about the “glycan array binding signal (z-score)” value [31] of the same binder?
Its value is -0.12.

What about the “glycan array binding signal (z-score)” value [32] of the same binder?
The value was -0.006.

And the “glycan array binding signal (z-score)” value [33]?
The value was -0.083.

And the “glycan array binding signal (z-score)” value [34]?
The value was 0.03.

What about the “glycan array binding signal (z-score)” value [35] of the same binder?
Its value is -0.176.

And the “glycan array binding signal (z-score)” value [36]?
Its value is -0.387.

What about the “glycan array binding signal (z-score)” value [37] of the same binder?
The value was -0.273.

And the “glycan array binding signal (z-score)” value [38]?
Its value is -0.25.

And the “glycan array binding signal (z-score)” value [39]?
Its value is -0.359.

What about the “glycan array binding signal (z-score)” value [40] of the same binder?
Its value is -0.251.

What about the “glycan array binding signal (z-score)” value [41] of the same binder?
Its value is -0.161.

And the “glycan array binding signal (z-score)” value [42]?
Its value is 0.016.

And the “glycan array binding signal (z-score)” value [43]?
Its value is -0.274.
